# The list shows a part of the results.
# Legend:
# Test in all cases: glycan array binding signal (z-score within array); higher = stronger binding
# Conditions in all cases: glycan notation: IUPAC condensed, linker removed
# [1] = target: Neu5Ac(a2-6)GlcNAc(b1-4)GlcNAc(b1-4)GlcNAc
# Summary of the method: (§1)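 Glycan array binding is given as a within-array Z-score, which can be read as non-binding when negative. The arrays, 3228 of them, came from the Consortium for Functional Glycomics database and were retained only where the protein sequence was available. Z-scores were averaged across arrays of the same protein sequence at different concentrations or buffers and across linkers.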
# [2] = target: Neu5Ac(a2-8)Neu5Ac
# Summary of the method: as §1
# [3] = target: Neu5Ac(a2-8)Neu5Ac(a2-3)Gal(b1-3)GalNAc(b1-4)[Neu5Ac(a2-3)]Gal(b1-4)Glc
# Summary of the method: as §1
# [4] = target: Neu5Ac(a2-8)Neu5Ac(a2-3)Gal(b1-3)GalNAc(b1-4)[Neu5Ac(a2-8)Neu5Ac(a2-3)]Gal(b1-4)Glc
# Summary of the method: as §1
# [5] = target: Neu5Ac(a2-8)Neu5Ac(a2-3)Gal(b1-4)Glc
# Summary of the method: as §1
# [6] = target: Neu5Ac(a2-8)Neu5Ac(a2-3)Gal(b1-4)GlcNAc
# Summary of the method: as §1
# [7] = target: Neu5Ac(a2-8)Neu5Ac(a2-3)[Gal(b1-3)GalNAc(b1-4)]Gal(b1-4)Glc
# Summary of the method: as §1
# [8] = target: Neu5Ac(a2-8)Neu5Ac(a2-3)[GalNAc(b1-4)]Gal(b1-4)Glc
# Summary of the method: as §1
# [9] = target: Neu5Ac(a2-8)Neu5Ac(a2-8)Neu5Ac
# Summary of the method: as §1
# [10] = target: Neu5Ac(a2-8)Neu5Ac(a2-8)Neu5Ac(a2-3)Gal(b1-4)Glc
# Summary of the method: as §1
# [11] = target: Neu5Ac(a2-8)Neu5Ac(a2-8)Neu5Ac(a2-3)[Gal(b1-3)GalNAc(b1-4)]Gal(b1-4)Glc
# Summary of the method: as §1
# [12] = target: Neu5Ac(a2-8)Neu5Ac(a2-8)Neu5Ac(a2-3)[GalNAc(b1-4)]Gal(b1-4)Glc
# Summary of the method: as §1
# [13] = target: Neu5Ac(a2-8)Neu5Ac(a2-8)Neu5Ac(a2-8)Neu5Ac(a2-3)[GalNAc(b1-4)]Gal(b1-4)Glc
# Summary of the method: as §1
# [14] = target: Neu5Ac(a2-8)Neu5Gc(a2-3)Gal(b1-4)GlcNAc
# Summary of the method: as §1
# [15] = target: Neu5Ac(b2-6)Gal(b1-4)GlcNAc
# Summary of the method: as §1
# [16] = target: Neu5Ac(b2-6)GalNAc
# Summary of the method: as §1
# [17] = target: Neu5Ac9Ac(a2-3)Gal(b1-3)GlcNAc
# Summary of the method: as §1
# [18] = target: Neu5Ac9Ac(a2-3)Gal(b1-4)GlcNAc
# Summary of the method: as §1
# [19] = target: Neu5Ac9Ac(a2-6)Gal(b1-4)GlcNAc
# Summary of the method: as §1
# [20] = target: Neu5Gc(a2-3)Gal(b1-3)GlcNAc
# Summary of the method: as §1
# [21] = target: Neu5Gc(a2-3)Gal(b1-3)[Fuc(a1-4)]GlcNAc
# Summary of the method: as §1
# [22] = target: Neu5Gc(a2-3)Gal(b1-4)Glc
# Summary of the method: as §1
# [23] = target: Neu5Gc(a2-3)Gal(b1-4)GlcNAc
# Summary of the method: as §1
# [24] = target: Neu5Gc(a2-3)Gal(b1-4)GlcNAc(b1-3)Gal(b1-4)GlcNAc(b1-2)Man(a1-3)[Neu5Gc(a2-3)Gal(b1-4)GlcNAc(b1-3)Gal(b1-4)GlcNAc(b1-2)Man(a1-6)]Man(b1-4)GlcNAc(b1-4)GlcNAc
# Summary of the method: as §1
# [25] = target: Neu5Gc(a2-3)Gal(b1-4)[Fuc(a1-3)]GlcNAc
# Summary of the method: as §1
# [26] = target: Neu5Gc(a2-6)Gal(b1-4)GlcNAc
# Summary of the method: as §1
# [27] = target: Neu5Gc(a2-6)GalNAc
# Summary of the method: as §1
# [28] = target: Neu5Gc(a2-8)Neu5Ac(a2-3)Gal(b1-4)GlcNAc
# Summary of the method: as §1
# [29] = target: Neu5Gc(a2-8)Neu5Gc(a2-3)Gal(b1-4)GlcNAc
# Summary of the method: as §1
# [30] = target: Neu5Gc(a2-8)Neu5Gc(a2-3)Gal(b1-4)GlcNAc(b1-3)Gal(b1-4)GlcNAc
# Summary of the method: as §1
# [31] = target: Neu5Gc(a2-8)Neu5Gc(a2-6)Gal(b1-4)GlcNAc
# Summary of the method: as §1
# [32] = target: Neu5Gc(b2-6)Gal(b1-4)GlcNAc
# Summary of the method: as §1
binder,measurement,setting,value
SP8524D-bot-399-27-399 (Bacteroides ovatus) (protein) DAKYDTLDTHAYIEEALSSTSQKVTVQATGESFTTLNVHLSNLSSTDNHYKLVTDQSVLDTYNHINGTGYIMLPKDYYTLPETITVKAGQYAADALSIALKAFSQEMMKSGESYALPVKLVLQDGSISPMENTGTFVILAESIIEFSAPMFVGAPSLKANKFTESPETYSQYTIEVRFQVANTADRDRAVFKNGGDDANFILLRFEDPQSDNENYKAHSLVQIVGRNRLYLNPSNSFKPNEWQHLALVCDGSNYRLYINGVDSGVLSIPTGATTFSDVNWFCLGDDSYSRWGNCKILMSEARIWSVVRSASQIQNNMTQVSPKSVGLEAYWRFNEGQGNVFEDATGKGHTLTTSATPTWIDGILSTDKSTEWK,glycan array binding signal (z-score),[1],-0.544
same,glycan array binding signal (z-score),[2],0.166
same,glycan array binding signal (z-score),[3],0.085
same,glycan array binding signal (z-score),[4],0.08
same,glycan array binding signal (z-score),[5],-0.038
same,glycan array binding signal (z-score),[6],0.069
same,glycan array binding signal (z-score),[7],-0.188
same,glycan array binding signal (z-score),[8],0.232
same,glycan array binding signal (z-score),[9],-0.148
same,glycan array binding signal (z-score),[10],0.61
same,glycan array binding signal (z-score),[11],-0.261
same,glycan array binding signal (z-score),[12],-0.523
same,glycan array binding signal (z-score),[13],-0.07
same,glycan array binding signal (z-score),[14],0.056
same,glycan array binding signal (z-score),[15],-0.048
same,glycan array binding signal (z-score),[16],-0.019
same,glycan array binding signal (z-score),[17],0.37
same,glycan array binding signal (z-score),[18],-0.24
same,glycan array binding signal (z-score),[19],-0.246
same,glycan array binding signal (z-score),[20],0.096
same,glycan array binding signal (z-score),[21],-0.087
same,glycan array binding signal (z-score),[22],-0.032
same,glycan array binding signal (z-score),[23],-0.207
same,glycan array binding signal (z-score),[24],-0.124
same,glycan array binding signal (z-score),[25],-0.022
same,glycan array binding signal (z-score),[26],0.091
same,glycan array binding signal (z-score),[27],-0.234
same,glycan array binding signal (z-score),[28],0.018
same,glycan array binding signal (z-score),[29],-0.464
same,glycan array binding signal (z-score),[30],0.29
same,glycan array binding signal (z-score),[31],-0.498
same,glycan array binding signal (z-score),[32],0.555

# Source: the supplement of paper PMC8728848
